Five molecules from publication PMC11500415, “Chemical inhibition of stomatal differentiation by perturbation of the master-regulatory bHLH heterodimer via an ACT-Like domain” (Nature Communications, 2024) can be followed below.

No constants are given. Whether binding was seen depends on the method and setting. For some of these results: In cells and extracts the contact can be indirect. Some binding calls cover weakened binding; strength is not graded here. For some of these results: Sequences can lack the tags named with a protein.

For assay [1], the target named is T1, MUTE, yeast two-hybrid bait (DB fusion) (A. thaliana) (UniProt Q9M8K6).
T1 sequence: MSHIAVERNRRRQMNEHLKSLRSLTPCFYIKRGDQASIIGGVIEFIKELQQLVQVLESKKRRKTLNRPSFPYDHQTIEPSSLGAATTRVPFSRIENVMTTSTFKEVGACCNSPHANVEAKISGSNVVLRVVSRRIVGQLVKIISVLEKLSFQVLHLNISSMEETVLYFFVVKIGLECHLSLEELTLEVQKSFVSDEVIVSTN
Put plainly: two-hybrid; Matchmaker system, yeast AH109, bait pGBKT7 and prey pGADT7; 10-fold serial dilutions on selection media with 1 mM 3-AT, with or without 50 µM SIM3* (7).

Assay [2] has as its target T2, SPCH-nYFP (A. thaliana) (UniProt Q700C7).
T2 sequence: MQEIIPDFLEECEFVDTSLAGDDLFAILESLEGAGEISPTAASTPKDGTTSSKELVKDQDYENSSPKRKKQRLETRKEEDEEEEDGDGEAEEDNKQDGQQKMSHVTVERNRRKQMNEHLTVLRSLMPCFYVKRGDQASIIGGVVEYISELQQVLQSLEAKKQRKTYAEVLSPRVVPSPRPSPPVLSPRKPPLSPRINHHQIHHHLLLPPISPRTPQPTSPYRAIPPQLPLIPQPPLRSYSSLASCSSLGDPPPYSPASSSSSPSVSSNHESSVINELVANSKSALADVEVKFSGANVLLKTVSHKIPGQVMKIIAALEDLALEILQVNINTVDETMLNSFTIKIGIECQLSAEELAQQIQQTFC
Briefly: split reporter; ratiometric BiFC in N. benthamiana leaves, nYFP and cYFP fusions with H2B-mScarlet-I3 as reference; leaf disks in mock (DMSO) or 100 µM Stomidazolone for 1 day.

Assay [3] addresses T3, MUTE-nYFP (Arabidopsis thaliana) (UniProt Q9M8K6).
T3 sequence: T1 sequence
Put plainly: split reporter; ratiometric BiFC in N. benthamiana leaves, split EYFP, H2B-mScarlet-I3 as reference; leaf discs in mock (DMSO).

For assay [4], the target named is T4, SPCH-nYFP (Arabidopsis thaliana) (UniProt Q700C7).
T4 sequence: T2 sequence
The description is as above.

Assay [5] concerns the target T5, FAMA-nYFP (Arabidopsis thaliana) (UniProt Q56YJ8).
T5 sequence: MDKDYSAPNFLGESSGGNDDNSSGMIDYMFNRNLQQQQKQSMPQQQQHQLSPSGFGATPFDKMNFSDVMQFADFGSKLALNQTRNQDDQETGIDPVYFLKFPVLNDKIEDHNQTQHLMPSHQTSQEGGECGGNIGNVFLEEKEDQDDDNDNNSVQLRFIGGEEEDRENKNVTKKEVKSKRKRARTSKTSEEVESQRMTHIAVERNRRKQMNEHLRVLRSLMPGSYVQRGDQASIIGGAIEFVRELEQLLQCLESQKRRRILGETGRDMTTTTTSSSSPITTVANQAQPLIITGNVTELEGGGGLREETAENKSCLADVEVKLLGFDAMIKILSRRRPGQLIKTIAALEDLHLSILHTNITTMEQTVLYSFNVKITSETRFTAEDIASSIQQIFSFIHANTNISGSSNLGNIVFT
The assay is described as above.

Assay [6] concerns the target T6, recombinant MUTE (1-202), as used in BLI (A. thaliana) (UniProt Q9M8K6).
T6 sequence: T1 sequence
Briefly: BLI; Octet Red96, anti-GST probes, 30 °C, 1× PBS, 2% DMSO, 0.02% Tween20; in presence of the analog AYSJ1061 (6); both purified. On the technique in general: BLI is a label-free optical method that tracks binding on a fibre tip over time.

Assay [7] addresses T7, recombinant MUTE (1-202), as used in ITC (A. thaliana) (UniProt Q9M8K6).
T7 sequence: T1 sequence
Put plainly: ITC; Malvern PEAQ-ITC, 30 °C, PBS pH 7.4, 2% DMSO, 1 mM DTT; in presence of the analog AYSJ1059 (5); both purified. (In general: Isothermal titration calorimetry measures the heat released or taken up as one component is titrated into another.)

In assay [8] the target is T6, recombinant MUTE (1-202), as used in BLI (A. thaliana). Briefly: BLI; Octet Red96, anti-GST probes, 30 °C, 1× PBS, 2% DMSO, 0.02% Tween20; in presence of the analog AYSJ1059 (5); both purified.
The target in assay [9] is T7, recombinant MUTE (1-202), as used in ITC (A. thaliana). Put plainly: ITC; Malvern PEAQ-ITC, 30 °C, PBS pH 7.4, 2% DMSO, 1 mM DTT; in presence of the analog AYSJ1061 (6); both purified.
The target of assay [10] is T8, MUTE, yeast two-hybrid fusion (Arabidopsis thaliana) (UniProt Q9M8K6).
T8 sequence: T1 sequence
Put plainly: two-hybrid; Matchmaker Gal4 system, yeast AH109; growth on SD -Trp -Leu -His with 3-AT (1 mM) and quantitative α-galactosidase assay; with 0, 10, 50, 100 μM Stomidazolone (diminishes, dose-dependent) or SIM3* (no effect).

Assay [11] concerns the target T9, MUTE-nYFP (A. thaliana) (UniProt Q9M8K6).
T9 sequence: T1 sequence
Briefly: split reporter; ratiometric BiFC in N. benthamiana leaves, nYFP and cYFP fusions with H2B-mScarlet-I3 as reference; leaf disks in mock (DMSO) or 100 µM Stomidazolone for 1 day.

Assay [12] has as its target T10, FAMA-nYFP (A. thaliana) (UniProt Q56YJ8).
T10 sequence: T5 sequence
Described as above.

In assay [13] the target is T9, MUTE-nYFP (A. thaliana). Put plainly: split reporter; ratiometric BiFC in N. benthamiana leaves, nYFP and cYFP fusions with H2B-mScarlet-I3 as reference; leaf disks treated with 100 µM Stomidazolone for 1 day.
The target of assay [14] is T2, SPCH-nYFP (A. thaliana). The description is as above.
For assay [15], the target named is T10, FAMA-nYFP (A. thaliana). The description is as above.
Assay [16] has as its target T3, MUTE-nYFP (Arabidopsis thaliana). Briefly: split reporter; ratiometric BiFC in N. benthamiana leaves, split EYFP, H2B-mScarlet-I3 as reference; leaf discs in 100 µM Stomidazolone for 1 day.
In assay [17] the target is T4, SPCH-nYFP (Arabidopsis thaliana). The description is as above.
The target in assay [18] is T5, FAMA-nYFP (Arabidopsis thaliana). The assay is described as above.

B1: SCRM, yeast two-hybrid prey (AD fusion) (protein, UniProt Q9LSE2 1-494)
chain: MGLDGNNGGGVWLNGGGGEREENEEGSWGRNQEDGSSQFKPMLEGDWFSSNQPHPQDLQMLQNQPDFRYFGGFPFNPNDNLLLQHSIDSSSSCSPSQAFSLDPSQQNQFLSTNNNKGCLLNVPSSANPFDNAFEFGSESGFLNQIHAPISMGFGSLTQLGNRDLSSVPDFLSARSLLAPESNNNNTMLCGGFTAPLELEGFGSPANGGFVGNRAKVLKPLEVLASSGAQPTLFQKRAAMRQSSGSKMGNSESSGMRRFSDDGDMDETGIEVSGLNYESDEINESGKAAESVQIGGGGKGKKKGMPAKNLMAERRRRKKLNDRLYMLRSVVPKISKMDRASILGDAIDYLKELLQRINDLHNELESTPPGSLPPTSSSFHPLTPTPQTLSCRVKEELCPSSLPSPKGQQARVEVRLREGRAVNIHMFCGRRPGLLLATMKALDNLGLDVQQAVISCFNGFALDVFRAEQCQEGQEILPDQIKAVLFDTAGYAGMI
In the case of B1, the binding entry in [1] was “binds”.

B2: SCRM-cYFP (protein, UniProt Q9LSE2 1-494)
chain: B1 chain
On to B2, for which the binding result (with SPCH-nYFP (A. thaliana) [2]; in assay [3]; in assay [4]; in assay [5]) was “binds” throughout.

B3: recombinant SCRM (1-494) (protein, UniProt Q9LSE2 1-494)
chain: B1 chain
Take B3: the binding result in assay [6], in assay [7], in assay [8] and in assay [9] was “binds” throughout.

B4: SCREAM (SCRM), yeast two-hybrid fusion (protein, UniProt Q9LSE2 1-494)
chain: B1 chain
Consider B4, for which the binding result in assay [10] is given as “binds”.

B5: SCRM2-cYFP (protein, UniProt Q9LPW3 1-450)
chain: MNSDGVWLDGSGESPEVNNGEAASWVRNPDEDWFNNPPPPQHTNQNDFRFNGGFPLNPSENLLLLLQQSIDSSSSSSPLLHPFTLDAASQQQQQQQQQQEQSFLATKACIVSLLNVPTINNNTFDDFGFDSGFLGQQFHGNHQSPNSMNFTGLNHSVPDFLPAPENSSGSCGLSPLFSNRAKVLKPLQVMASSGSQPTLFQKRAAMRQSSSSKMCNSESSSEMRKSSYEREIDDTSTGIIDISGLNYESDDHNTNNNKGKKKGMPAKNLMAERRRRKKLNDRLYMLRSVVPKISKMDRASILGDAIDYLKELLQRINDLHTELESTPPSSSSLHPLTPTPQTLSYRVKEELCPSSSLPSPKGQQPRVEVRLREGKAVNIHMFCGRRPGLLLSTMRALDNLGLDVQQAVISCFNGFALDVFRAEQCQEDHDVLPEQIKAVLLDTAGYAGLV
For the molecule B5, the binding result was “binds” with MUTE-nYFP (A. thaliana) [11]; “binds” with SPCH-nYFP (A. thaliana) [2]; “binds” in the assay with FAMA-nYFP (A. thaliana) [12]; “no binding (condition: with 100 µM Stomidazolone)” with MUTE-nYFP (A. thaliana) [13]; “no binding (condition: with 100 µM Stomidazolone)” with SPCH-nYFP (A. thaliana) [14]; “no binding (condition: with 100 µM Stomidazolone)” with FAMA-nYFP (A. thaliana) [15]. Besides, the binding result in assay [3] is “binds”; in assay [4] it was “binds”; in assay [5] it was “binds”; in assay [16], “no binding (condition: with 100 µM Stomidazolone)”; in assay [17], “no binding (condition: with 100 µM Stomidazolone)”; in assay [18] it was “no binding (condition: with 100 µM Stomidazolone)”.
